A lower IC50 marks a more sensitive line; fits outside the tested doses are given as limits. The AUC spans the tested range (256-fold, ending at the top dose) of the same fit; values near 1 show little effect. Where the top dose is marked as inferred, it was derived from the fitted curves, not read from the paper.
What was measured:
Experiment in all cases: Viability of human cancer cell lines after 72 h of drug (GDSC screen)
[1] = compound: COc1cc(N2CCN(C)CC2)ccc1Nc1nc(N)c(C(=O)c2c(Cl)cccc2Cl)s1 [XMD14-99]; settings: top dose 10.24 µM; top dose inferred
Protocol: (§1)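 Human cancer cell lines in 384-well plates, medium with 10% serum, drug for 72 h over a 256-fold dose range (nine 2-fold or five 4-fold steps up to the top dose). Adherent lines were fixed and stained with the nucleic acid dye Syto60, suspension lines read with resazurin; signal relative to control wells, capped at 0 and 100%. One two-parameter sigmoid per drug and line, fitted in a mixed model over all curves with the slope shared within a line.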

[2] = compound: Cc1cc([N+](=O)[O-])ccc1NS(=O)(=O)c1cc(Cl)ccc1Cl [FH535]; settings: top dose 32 µM; top dose inferred
Protocol: as §1

[3] = compound: O=C(NC1CCNCC1)c1n[nH]cc1NC(=O)c1c(Cl)cccc1Cl [AT-7519]; settings: top dose 10.24 µM; top dose inferred
Protocol: as §1

| Cell Line | AUC [1] | IC50 [1] [µM] | AUC [2] | IC50 [2] [µM] | AUC [3] | IC50 [3] [µM] |
| --- | --- | --- | --- | --- | --- | --- |
| HGC-27 (stomach, adherent) | 0.967 | > 10.2 | 0.609 | 3.8 | 0.463 | 0.515 |
| HLE (liver, adherent) | 0.985 | > 10.2 | 0.532 | 2.43 | 0.834 | 6.14 |
| HMV-II (melanoma, adherent) | 0.884 | > 10.2 | 0.514 | 2.2 | 0.809 | 6.84 |
| HN (head and neck, adherent) | 0.988 | > 10.2 | 0.909 | > 32 | 0.956 | > 10.2 |
| HO-1-N-1 (head and neck, adherent) | 0.989 | > 10.2 | 0.876 | 27.2 | 0.452 | 0.478 |
| HO-1-u-1 (head and neck, adherent) | 0.984 | > 10.2 | 0.596 | 3.62 | 0.819 | 5.52 |
| HOP-92 (large cell lung carcinoma, adherent) | 0.983 | > 10.2 | 0.51 | 2.13 | 0.931 | > 10.2 |
| HOS (osteosarcoma, adherent) | 0.992 | > 10.2 | 0.599 | 3.55 | 0.992 | > 10.2 |
| HPAC (pancreas, adherent) | 0.954 | > 10.2 | 0.657 | 6.54 | 0.575 | 1.12 |
| HPAF-II (pancreas, adherent) | 0.981 | > 10.2 | 0.7 | 8.81 | 0.674 | 2.28 |
| HSC-2 (head and neck, adherent) | 0.988 | > 10.2 | 0.616 | 4.05 | 0.895 | > 10.2 |
| HSC-3 (head and neck, adherent) | 0.985 | > 10.2 | 0.579 | 3.19 | 0.609 | 1.22 |
| HSC-4 (head and neck, adherent) | 0.979 | > 10.2 | 0.742 | 12.7 | 0.619 | 1.52 |
| HT55 (large intestine, adherent) | 0.99 | > 10.2 | 0.927 | > 32 | 0.973 | > 10.2 |
| HT-3 (cervix, adherent) | 0.984 | > 10.2 | 0.867 | 29.6 | 0.592 | 1.15 |
| HT-29 (large intestine, adherent) | 0.92 | > 10.2 | 0.661 | 5.58 | 0.547 | 0.861 |
| HT-115 (large intestine, adherent) | 0.989 | > 10.2 | 0.911 | > 32 | 0.99 | > 10.2 |
| HT-1080 (fibrosarcoma, adherent) | 0.989 | > 10.2 | 0.436 | 1.37 | 0.983 | > 10.2 |
| HT-1376 (bladder, adherent) | 0.984 | > 10.2 | 0.599 | 3.92 | 0.965 | > 10.2 |
| HTC-C3 (thyroid, adherent) | 0.969 | > 10.2 | 0.486 | 1.83 | 0.849 | 9.18 |
| HeLa (cervix, adherent) | 0.984 | > 10.2 | 0.493 | 1.92 | 0.891 | > 10.2 |
| Hep 3B2_1-7 (liver, adherent) | 0.982 | > 10.2 | 0.445 | 1.41 | 0.975 | > 10.2 |
| Hs633T (fibrosarcoma, adherent) | 0.992 | > 10.2 | 0.651 | 4.82 | 0.713 | 2.24 |
| Hs683 (glioma, adherent) | 0.974 | > 10.2 | 0.734 | 9.4 | 0.777 | 4.15 |
| Hs766T (pancreas, adherent) | 0.984 | > 10.2 | 0.48 | 1.73 | 0.972 | > 10.2 |
| Hs939-T (melanoma, adherent) | 0.986 | > 10.2 | 0.506 | 2.08 | 0.966 | > 10.2 |

| Cell Line | AUC [1] | IC50 [1] [µM] | AUC [2] | IC50 [2] [µM] | AUC [3] | IC50 [3] [µM] |
| --- | --- | --- | --- | --- | --- | --- |
| Hs940-T (melanoma, adherent) | 0.983 | > 10.2 | 0.554 | 2.9 | 0.86 | > 10.2 |
| Hs-578-T (breast, adherent) | 0.987 | > 10.2 | 0.706 | 7.92 | 0.987 | > 10.2 |
| HuCCT1 (biliary tract, adherent) | 0.96 | > 10.2 | 0.706 | 8.24 | 0.55 | 0.89 |
| HuH-7 (liver, adherent) | 0.987 | > 10.2 | 0.437 | 1.34 | 0.933 | > 10.2 |
| HuO9 (osteosarcoma, adherent) | 0.917 | > 10.2 | 0.896 | > 32 | 0.428 | 0.397 |
| HuO-3N1 (osteosarcoma, adherent) | 0.981 | > 10.2 | 0.781 | 17.9 | 0.751 | 4.35 |
| HuP-T3 (pancreas, adherent) | 0.978 | > 10.2 | 0.762 | 13.9 | 0.758 | 4.3 |
| HuP-T4 (pancreas, adherent) | 0.931 | > 10.2 | 0.421 | 1.2 | 0.354 | 0.246 |
| IGR-37 (melanoma, adherent) | 0.989 | > 10.2 | 0.449 | 1.47 | 0.967 | > 10.2 |
| IM-95 (stomach, adherent) | 0.959 | > 10.2 | 0.568 | 3.11 | 0.41 | 0.357 |
| IPC-298 (melanoma, adherent) | 0.974 | > 10.2 | 0.574 | 3.18 | 0.839 | 6.8 |
| J82 (bladder, adherent) | 0.988 | > 10.2 | 0.493 | 1.91 | 0.919 | > 10.2 |
| JEG-3 (urogenital system, adherent) | 0.978 | > 10.2 | 0.492 | 1.91 | 0.604 | 1.2 |
| JHH-1 (liver, adherent) | 0.96 | > 10.2 | 0.568 | 3.13 | 0.732 | 3.14 |
| JHH-2 (liver, adherent) | 0.985 | > 10.2 | 0.912 | > 32 | 0.622 | 1.43 |
| JHH-4 (liver, adherent) | 0.987 | > 10.2 | 0.474 | 1.7 | 0.861 | 8.66 |
| JHH-6 (liver, adherent) | 0.985 | > 10.2 | 0.556 | 2.86 | 0.912 | > 10.2 |
| JHH-7 (liver, adherent) | 0.988 | > 10.2 | 0.415 | 1.19 | 0.933 | > 10.2 |
| JHU-011 (head and neck, adherent) | 0.888 | > 10.2 | 0.624 | 4.36 | 0.369 | 0.281 |
| JHU-022 (head and neck, adherent) | 0.982 | > 10.2 | 0.931 | > 32 | 0.892 | > 10.2 |
| JIMT-1 (breast, adherent) | 0.985 | > 10.2 | 0.567 | 3.09 | 0.902 | > 10.2 |
| K2 (melanoma, adherent) | 0.982 | > 10.2 | 0.414 | 1.09 | 0.906 | > 10.2 |
| KMH-2 (thyroid, adherent) | 0.988 | > 10.2 | 0.532 | 2.42 | 0.677 | 1.88 |
| KMRC-1 (kidney, adherent) | 0.987 | > 10.2 | 0.784 | 14.4 | 0.982 | > 10.2 |
| KMRC-20 (kidney, adherent) | 0.983 | > 10.2 | 0.449 | 1.44 | 0.985 | > 10.2 |
| KON (head and neck, adherent) | 0.987 | > 10.2 | 0.657 | 5.41 | 0.95 | > 10.2 |

| Cell Line | AUC [1] | IC50 [1] [µM] | AUC [2] | IC50 [2] [µM] | AUC [3] | IC50 [3] [µM] |
| --- | --- | --- | --- | --- | --- | --- |
| KP-2 (pancreas, adherent) | 0.942 | > 10.2 | 0.544 | 2.65 | 0.502 | 0.65 |
| KP-3 (pancreas, adherent) | 0.973 | > 10.2 | 0.647 | 5.53 | 0.613 | 1.4 |
| KP-4 (pancreas, adherent) | 0.988 | > 10.2 | 0.475 | 1.71 | 0.711 | 2.45 |
| KU-19-19 (bladder, adherent) | 0.987 | > 10.2 | 0.835 | 21 | 0.687 | 2.13 |
| KYM-1 (rhabdomyosarcoma, adherent) | 0.988 | > 10.2 | 0.768 | 10.3 | 0.991 | > 10.2 |
| KYSE-50 (oesophagus, adherent) | 0.935 | > 10.2 | 0.42 | 1.23 | 0.578 | 1.03 |
| KYSE-70 (oesophagus, adherent) | 0.984 | > 10.2 | 0.562 | 3.01 | 0.798 | 5.39 |
| KYSE-140 (oesophagus, adherent) | 0.984 | > 10.2 | 0.654 | 5.67 | 0.463 | 0.499 |
| KYSE-150 (oesophagus, adherent) | 0.987 | > 10.2 | 0.634 | 4.6 | 0.846 | 7.04 |
| KYSE-180 (oesophagus, adherent) | 0.988 | > 10.2 | 0.598 | 3.66 | 0.487 | 0.592 |
| KYSE-220 (oesophagus, adherent) | 0.986 | > 10.2 | 0.779 | 13.8 | 0.669 | 1.95 |
| KYSE-270 (oesophagus, adherent) | 0.978 | > 10.2 | 0.597 | 3.53 | 0.614 | 1.25 |
| KYSE-410 (oesophagus, adherent) | 0.981 | > 10.2 | 0.672 | 6.23 | 0.691 | 2.29 |
| KYSE-450 (oesophagus, adherent) | 0.965 | > 10.2 | 0.7 | 7.04 | 0.506 | 0.662 |
| KYSE-510 (oesophagus, adherent) | 0.991 | > 10.2 | 0.671 | 5.45 | 0.917 | > 10.2 |
| KYSE-520 (oesophagus, adherent) | 0.982 | > 10.2 | 0.792 | 20.3 | 0.754 | 4.57 |
| LC-1-sq (lung squamous cell carcinoma, adherent) | 0.981 | > 10.2 | 0.744 | 11.5 | 0.845 | 9.34 |
| LCLC-97TM1 (large cell lung carcinoma, adherent) | 0.926 | > 10.2 | 0.601 | 3.89 | 0.329 | 0.204 |
| LCLC-103H (large cell lung carcinoma, adherent) | 0.986 | > 10.2 | 0.655 | 5.13 | 0.431 | 0.423 |
| LK-2 (lung squamous cell carcinoma, adherent) | 0.968 | > 10.2 | 0.358 | 0.83 | 0.881 | 9.71 |
| LN-18 (glioma, adherent) | 0.994 | > 10.2 | 0.519 | 2.23 | 0.939 | > 10.2 |
| LN-229 (glioma, adherent) | 0.988 | > 10.2 | 0.649 | 5.16 | 0.961 | > 10.2 |
| LN-405 (glioma, adherent) | 0.984 | > 10.2 | 0.706 | 8.95 | 0.717 | 3.13 |
| LNZTA3WT4 (glioma, adherent) | 0.987 | > 10.2 | 0.446 | 1.43 | 0.962 | > 10.2 |
| LOU-NH91 (lung squamous cell carcinoma, adherent) | 0.983 | > 10.2 | 0.541 | 2.62 | 0.945 | > 10.2 |
| LS-180 (large intestine, adherent) | 0.976 | > 10.2 | 0.686 | 7.18 | 0.839 | 8.46 |
